Results are given in words; binding and its absence hold for the method and conditions named. In cells and extracts the contact can be indirect. Some results given as binding are weak or reduced against the parent protein; the word gives no strength.

For assay [1], the target named is GST-fused wild-type E2F1 (residues 1–437) (UniProt Q01094). The assay is described as follows: pull-down; GST or GST-E2F1 fusion proteins incubated with in vitro-translated 35S-labeled EBNA3C proteins precleared with GST-beads; binding buffer 1x PBS, 0.1% NP-40, 0.5 mM DTT, 10% glycerol, protease inhibitors; SDS-PAGE and phosphoimager; only the target purified.
For assay [2], the target named is flag-tagged E2F1 mutant (residues 1–400), pRb binding deficient (UniProt Q01094). The assay is described as follows: co-IP; 10 million HEK 293 (pRb+/+) cells co-transfected, harvested after 36 h, RIPA buffer; IP with anti-flag antibody (M2), blot with anti-myc.
Assay [3] deals with GST-fused E2F1 residues 1–243 (UniProt Q01094). As to the kind of experiment: pull-down; GST or GST-E2F1 fusion proteins incubated with in vitro-translated 35S-labeled EBNA3C proteins precleared with GST-beads; binding buffer 1x PBS, 0.1% NP-40, 0.5 mM DTT, 10% glycerol, protease inhibitors; SDS-PAGE and phosphoimager; only the target purified.
Assay [4] has as its target flag-tagged wild-type E2F1 (residues 1–437) (UniProt Q01094). The assay is described as follows: co-IP; 10 million HEK 293 (pRb+/+) cells co-transfected, harvested after 36 h, RIPA buffer; IP with anti-flag antibody (M2), blot with anti-myc.
The target of assay [5] is flag-tagged E2F1 residues 1–243 (UniProt Q01094). Described as above.
Assay [6] concerns the target flag-tagged E2F1 residues 243–437 (UniProt Q01094). The assay is described as above.
For assay [7], the target named is flag-tagged E2F1 residues 1–310 (UniProt Q01094). The description is as above.
The target of assay [8] is flag-tagged wild-type E2F1 (residues 1–437) (UniProt Q01094). As to the kind of experiment: co-IP; 10 million Saos-2 (pRb-/-) cells co-transfected, harvested after 36 h, RIPA buffer; IP with anti-flag antibody, blot with anti-myc.
The target of assay [9] is flag-tagged E2F1 mutant (residues 1–400), pRb binding deficient (UniProt Q01094). The description is as above.

Turning to “in vitro-translated EBNA3C residues 130–300 (from UniProt P03204 130-300) (domain or fragment)”, in assay [1], the binding result is recorded as “binds”. For the substance “myc-tagged EBNA3C residues 1–365 (from UniProt P03204 1-365) (domain or fragment)”, the binding result in [2] is “binds”. On to “in vitro-translated EBNA3C residues 1–129 (from UniProt P03204 1-129) (domain or fragment)”, for which the binding result in assay [1] was “binds”. Consider “in vitro-translated EBNA3C (residues 1–992) (from UniProt P03204 1-992)”, for which the binding result in [3] and in assay [1] was “binds” each time. Regarding “myc-tagged EBNA3C (residues 1–992) (from UniProt P03204 1-992)”, the binding entry is given as “binds” in [4]; “binds” in [5]; “no binding” in [6]; “binds” in [7]; “binds” in assay [2]; “binds” in assay [8]. Further, the binding entry in assay [9] was “binds”. Regarding “myc-tagged EBNA3C residues 700–900 (from UniProt P03204 700-900) (domain or fragment)”, the binding entry in assay [2] is on record as “no binding”. On to “in vitro-translated EBNA3C residues 200–300 (from UniProt P03204 200-300) (domain or fragment)”, for which, in [1], the binding entry is “no binding”. Still for that read-out and setting: for “in vitro-translated EBNA3C residues 1–365 (from UniProt P03204 1-365) (domain or fragment)” the value was “binds”; for “in vitro-translated EBNA3C residues 50–300 (from UniProt P03204 50-300) (domain or fragment)”, “binds”; for “in vitro-translated EBNA3C residues 1–100 (from UniProt P03204 1-100) (domain or fragment)”, “no binding”. For the substance “in vitro-translated EBNA3C residues 1–300 (from UniProt P03204 1-300) (domain or fragment)”, the binding result in assay [1] is recorded as “binds”. As to “in vitro-translated EBNA3C residues 1–250 (from UniProt P03204 1-250) (domain or fragment)”, the binding entry in assay [1] was “binds”. Still for that read-out and setting: for “in vitro-translated EBNA3C residues 160–300 (from UniProt P03204 160-300) (domain or fragment)” the value was “binds”. For the substance “myc-tagged EBNA3C residues 366–620 (from UniProt P03204 366-620) (domain or fragment)”, the binding entry in assay [2] was “no binding”. Consider “in vitro-translated EBNA3C residues 1–159 (from UniProt P03204 1-159) (domain or fragment)”, for which, in assay [1], the binding entry is “binds”.

Values taken from paper PMC3305458, “E2F1 Mediated Apoptosis Induced by the DNA Damage Response Is Blocked by EBV Nuclear Antigen 3C in Lymphoblastoid Cells” (PLoS Pathogens, 2012).
